Test results reported in publication PMC5700166.
This is a selection; strong and weak results do not stand in their true shares. For some of these results: The list includes weakly bound sequences.

Experiments:
Experiment in all cases: protein-binding microarray (PBM)
Conditions in all cases: PBM: ~300 nM protein, 6 mM HEPES pH 7.8, 80 mM KCl, 0.5 mM EDTA, 0.5 mM EGTA, 6% glycerol, 35 ng/ul poly-dIdC, 1% milk, 1 h, room temperature; Ap Aiptasia and Nv Nematostella (sea anemones) / Co Capsaspora / Aq Amphimedon (sponge) / Dm Drosophila / Hu human; RHD is the Rel homology domain; high values mean tight binding; most listed sequences are background and not binding sites; double strand, one strand shown
GST-Dm-Relish = molecular target: T1, GST-Dm-Relish (UniProt Q94527)
T1 sequence: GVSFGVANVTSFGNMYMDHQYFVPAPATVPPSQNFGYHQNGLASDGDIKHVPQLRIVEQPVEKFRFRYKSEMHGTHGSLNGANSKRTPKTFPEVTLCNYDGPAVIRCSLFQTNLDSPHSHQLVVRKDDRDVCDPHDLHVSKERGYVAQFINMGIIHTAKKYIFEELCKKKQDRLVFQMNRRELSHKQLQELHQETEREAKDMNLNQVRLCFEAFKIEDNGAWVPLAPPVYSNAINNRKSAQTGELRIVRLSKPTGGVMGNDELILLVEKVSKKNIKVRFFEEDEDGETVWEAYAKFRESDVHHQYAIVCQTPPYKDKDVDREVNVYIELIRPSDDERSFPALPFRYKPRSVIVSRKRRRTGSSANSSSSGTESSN

GST-Aq-NF-kB = molecular target: T2, GST-Aq-NF-kB (UniProt A9Y5G7)
T2 sequence: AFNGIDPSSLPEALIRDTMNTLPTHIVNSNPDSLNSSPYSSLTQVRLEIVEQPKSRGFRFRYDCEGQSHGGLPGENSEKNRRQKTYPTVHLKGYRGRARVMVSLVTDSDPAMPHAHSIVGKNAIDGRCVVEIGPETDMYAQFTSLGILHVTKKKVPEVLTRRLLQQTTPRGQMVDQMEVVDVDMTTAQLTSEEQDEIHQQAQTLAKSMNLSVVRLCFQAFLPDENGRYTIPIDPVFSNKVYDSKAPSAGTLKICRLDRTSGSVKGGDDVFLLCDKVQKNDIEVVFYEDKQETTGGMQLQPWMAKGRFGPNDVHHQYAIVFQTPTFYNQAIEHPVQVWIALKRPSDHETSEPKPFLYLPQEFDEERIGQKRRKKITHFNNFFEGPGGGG

GST-Ap-NF-kB RHD = molecular target: T3, GST-Ap-NF-kB RHD (UniProt A0A913YAJ5)
T3 sequence: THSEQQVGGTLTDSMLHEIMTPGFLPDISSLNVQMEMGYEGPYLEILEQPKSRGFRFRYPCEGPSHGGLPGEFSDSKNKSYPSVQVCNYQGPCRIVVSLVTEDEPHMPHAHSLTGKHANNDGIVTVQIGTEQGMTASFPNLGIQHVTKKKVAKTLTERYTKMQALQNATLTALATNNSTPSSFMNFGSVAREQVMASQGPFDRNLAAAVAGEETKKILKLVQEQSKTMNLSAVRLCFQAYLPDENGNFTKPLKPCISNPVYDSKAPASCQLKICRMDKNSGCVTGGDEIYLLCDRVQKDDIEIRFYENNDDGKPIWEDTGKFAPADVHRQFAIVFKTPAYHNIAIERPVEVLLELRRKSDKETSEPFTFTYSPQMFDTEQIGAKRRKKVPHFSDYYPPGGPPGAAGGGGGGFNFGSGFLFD

[1] = molecular target: T4, GST-Nv-NF-kB (Cys allele) (UniProt E5G601)
T4 sequence: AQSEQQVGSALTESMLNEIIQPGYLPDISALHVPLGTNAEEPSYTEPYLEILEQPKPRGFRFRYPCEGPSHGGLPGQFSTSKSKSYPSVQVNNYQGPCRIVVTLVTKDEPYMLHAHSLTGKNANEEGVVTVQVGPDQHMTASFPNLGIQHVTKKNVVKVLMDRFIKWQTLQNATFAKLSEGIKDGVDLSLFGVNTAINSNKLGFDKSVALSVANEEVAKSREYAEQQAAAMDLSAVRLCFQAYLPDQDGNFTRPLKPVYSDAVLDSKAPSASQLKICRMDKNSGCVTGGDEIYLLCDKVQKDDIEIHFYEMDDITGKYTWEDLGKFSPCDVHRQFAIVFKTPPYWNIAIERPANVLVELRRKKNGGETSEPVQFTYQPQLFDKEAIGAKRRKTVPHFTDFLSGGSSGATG

GST-Co-NF-kB = molecular target: T5, GST-Co-NF-kB (UniProt F1ARL5)
T5 sequence: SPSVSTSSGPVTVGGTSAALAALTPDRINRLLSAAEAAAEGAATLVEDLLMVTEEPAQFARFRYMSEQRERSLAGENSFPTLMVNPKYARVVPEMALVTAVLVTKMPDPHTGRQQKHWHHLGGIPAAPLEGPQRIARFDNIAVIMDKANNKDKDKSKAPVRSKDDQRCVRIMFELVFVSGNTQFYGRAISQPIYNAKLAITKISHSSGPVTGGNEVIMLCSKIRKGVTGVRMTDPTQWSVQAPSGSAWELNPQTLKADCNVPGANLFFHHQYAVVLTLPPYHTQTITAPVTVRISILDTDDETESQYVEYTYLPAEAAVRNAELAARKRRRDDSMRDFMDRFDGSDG

In the case of “CCGATTAACATCAAGCATTTCCCTGATGTTAATCGGGTCTTGATTCGCTTGACGCTGCTG”, the binding signal (GST-Dm-Relish) is reported as 0.924 z-score and the binding signal (GST-Aq-NF-kB) is reported as 3.63 z-score.
Sequence “CCGATTAACATCAACATTTTCCCTGATGTTAATCGGGTCTTGATTCGCTTGACGCTGCTG” has a binding signal (GST-Dm-Relish) of 1.62 z-score and a binding signal (GST-Aq-NF-kB) of 3.41 z-score.
Sequence “CCGATTAACATCAGGGTAAAACCTGATGTTAATCGGGTCTTGATTCGCTTGACGCTGCTG” has a binding signal (GST-Dm-Relish) of 3.45 z-score and a binding signal (GST-Aq-NF-kB) of 6.02 z-score.
“CCGATTAACATCAAACAGTCCCCTGATGTTAATCGGGTCTTGATTCGCTTGACGCTGCTG” showed a binding signal (GST-Ap-NF-kB RHD) of 5.58 z-score.
Work on “CCGATTAACATCAAAAATCTCCCTGATGTTAATCGGGTCTTGATTCGCTTGACGCTGCTG” yielded a binding signal (GST-Dm-Relish) of 2.94 z-score and a binding signal (GST-Aq-NF-kB) of 6.14 z-score.
Work on “CCGATTAACATCAGGGGGGATAATGATGTTAATCGGGTCTTGATTCGCTTGACGCTGCTG” yielded a binding signal (GST-Dm-Relish) of 4.67 z-score and a binding signal (GST-Aq-NF-kB) of 4.72 z-score.
“CCGATTAACATCAAAATTCCCAGTGATGTTAATCGGGTCTTGATTCGCTTGACGCTGCTG” was tested, and the binding signal (GST-Ap-NF-kB RHD) was 3.76 z-score.
“CCGATTAACATCAGGGGTTTCTATGATGTTAATCGGGTCTTGATTCGCTTGACGCTGCTG” was tested, and the binding signal (GST-Dm-Relish) was 5.29 z-score and the binding signal (GST-Aq-NF-kB) was 4.5 z-score.
Work on “CCGATTAACATCAATCCCCCCCGTGATGTTAATCGGGTCTTGATTCGCTTGACGCTGCTG” yielded a binding signal (GST-Dm-Relish) of 6.77 z-score and a binding signal (GST-Aq-NF-kB) of 5.33 z-score.
In the case of “CCGATTAACATCACGTCCCCCCCTGATGTTAATCGGGTCTTGATTCGCTTGACGCTGCTG”, the binding signal (GST-Dm-Relish) is reported as 4.38 z-score and the binding signal (GST-Aq-NF-kB) is reported as 4.49 z-score.
In the case of “CCGATTAACATCAGGGAGTTACCTGATGTTAATCGGGTCTTGATTCGCTTGACGCTGCTG”, the binding signal (GST-Dm-Relish) is reported as 7.17 z-score and the binding signal (GST-Aq-NF-kB) is reported as 7.22 z-score.
With “CCGATTAACATCAGGGGTTTCACTGATGTTAATCGGGTCTTGATTCGCTTGACGCTGCTG” the binding signal (GST-Ap-NF-kB RHD) was 3.56 z-score.
For “CCGATTAACATCAGGGGATGTACTGATGTTAATCGGGTCTTGATTCGCTTGACGCTGCTG”, the binding signal (GST-Dm-Relish) was 9.92 z-score and the binding signal (GST-Aq-NF-kB) was 5.33 z-score.
“CCGATTAACATCAAGATTTTCCCTGATGTTAATCGGGTCTTGATTCGCTTGACGCTGCTG” showed a binding signal (GST-Ap-NF-kB RHD) of 4.58 z-score.
For “CCGATTAACATCAGGGGAATGGATGATGTTAATCGGGTCTTGATTCGCTTGACGCTGCTG”, the binding signal (GST-Dm-Relish) was 1.71 z-score and the binding signal (GST-Aq-NF-kB) was 4.07 z-score.
Sequence “CCGATTAACATCAGTATTTCCCATGATGTTAATCGGGTCTTGATTCGCTTGACGCTGCTG” has a binding signal (GST-Ap-NF-kB RHD) of 3.01 z-score.
For “CCGATTAACATCAAAAATCCCGATGATGTTAATCGGGTCTTGATTCGCTTGACGCTGCTG”, the binding signal (GST-Dm-Relish) was 6.2 z-score and the binding signal (GST-Aq-NF-kB) was 4.05 z-score.
“CCGATTAACATCAAGAACTTCCCTGATGTTAATCGGGTCTTGATTCGCTTGACGCTGCTG” gave a binding signal (GST-Dm-Relish) of 2.86 z-score and a binding signal (GST-Aq-NF-kB) of 4.6 z-score.
“CCGATTAACATCAGGAAAGGCCCTGATGTTAATCGGGTCTTGATTCGCTTGACGCTGCTG” gave a binding signal (GST-Ap-NF-kB RHD) of 2.38 z-score, a binding signal [1] of 2.62 z-score and a binding signal (GST-Co-NF-kB) of -0.993 z-score.
For “CCGATTAACATCAGGGCTTTCCATGATGTTAATCGGGTCTTGATTCGCTTGACGCTGCTG”, the binding signal (GST-Ap-NF-kB RHD) was 0.986 z-score, the binding signal [1] was 0.147 z-score and the binding signal (GST-Co-NF-kB) was 0.136 z-score.
“CCGATTAACATCACGGTTTTTCCTGATGTTAATCGGGTCTTGATTCGCTTGACGCTGCTG” gave a binding signal (GST-Ap-NF-kB RHD) of 0.469 z-score, a binding signal [1] of 0.599 z-score and a binding signal (GST-Co-NF-kB) of -0.0134 z-score.
With “CCGATTAACATCAGGGAGGGAAATGATGTTAATCGGGTCTTGATTCGCTTGACGCTGCTG” the binding signal (GST-Ap-NF-kB RHD) was 2.6 z-score, the binding signal [1] was 4.76 z-score and the binding signal (GST-Co-NF-kB) was 3.79 z-score.
Work on “CCGATTAACATCACGGAATTCCGTGATGTTAATCGGGTCTTGATTCGCTTGACGCTGCTG” yielded a binding signal (GST-Ap-NF-kB RHD) of -0.432 z-score, a binding signal [1] of -0.206 z-score and a binding signal (GST-Co-NF-kB) of -1.12 z-score.
“CCGATTAACATCAAGTAATTTCCTGATGTTAATCGGGTCTTGATTCGCTTGACGCTGCTG” showed a binding signal (GST-Ap-NF-kB RHD) of 0.203 z-score, a binding signal [1] of -0.425 z-score and a binding signal (GST-Co-NF-kB) of 0.59 z-score.
“CCGATTAACATCACGTGGTTTCCTGATGTTAATCGGGTCTTGATTCGCTTGACGCTGCTG” showed a binding signal (GST-Ap-NF-kB RHD) of 0.303 z-score, a binding signal [1] of -0.188 z-score and a binding signal (GST-Co-NF-kB) of 0.354 z-score.
In the case of “CCGATTAACATCAGAAATTTTCCTGATGTTAATCGGGTCTTGATTCGCTTGACGCTGCTG”, the binding signal (GST-Ap-NF-kB RHD) is reported as 0.0756 z-score, the binding signal [1] is reported as 0.764 z-score and the binding signal (GST-Co-NF-kB) is reported as 0.178 z-score.
Sequence “CCGATTAACATCAACGGAAATCCTGATGTTAATCGGGTCTTGATTCGCTTGACGCTGCTG” has a binding signal (GST-Ap-NF-kB RHD) of 0.114 z-score, a binding signal [1] of 0.316 z-score and a binding signal (GST-Co-NF-kB) of 0.437 z-score.
For “CCGATTAACATCAGGGGTTTCCATGATGTTAATCGGGTCTTGATTCGCTTGACGCTGCTG”, the binding signal (GST-Ap-NF-kB RHD) was 5.75 z-score, the binding signal [1] was 5.04 z-score and the binding signal (GST-Co-NF-kB) was 1.21 z-score.
With “CCGATTAACATCAGGAAATACCATGATGTTAATCGGGTCTTGATTCGCTTGACGCTGCTG” the binding signal (GST-Ap-NF-kB RHD) was 0.524 z-score, the binding signal [1] was 0.818 z-score and the binding signal (GST-Co-NF-kB) was 0.687 z-score.
“CCGATTAACATCAAATTTTCCCCTGATGTTAATCGGGTCTTGATTCGCTTGACGCTGCTG” showed a binding signal (GST-Ap-NF-kB RHD) of 7.95 z-score, a binding signal [1] of 9.83 z-score and a binding signal (GST-Co-NF-kB) of 11.6 z-score.
With “CCGATTAACATCAGAAATTTCCATGATGTTAATCGGGTCTTGATTCGCTTGACGCTGCTG” the binding signal (GST-Ap-NF-kB RHD) was 0.388 z-score, the binding signal [1] was -0.112 z-score and the binding signal (GST-Co-NF-kB) was 0.846 z-score.
Work on “CCGATTAACATCAGATTTTCCCCTGATGTTAATCGGGTCTTGATTCGCTTGACGCTGCTG” yielded a binding signal (GST-Ap-NF-kB RHD) of 8 z-score, a binding signal [1] of 8.78 z-score and a binding signal (GST-Co-NF-kB) of 9.39 z-score.
